According to the antibiotic and cytotoxicity screens of Wong et al. (2023):
The list shows a part of the results.

Assays:
[1] = test system: HSkMC (human skeletal muscle cells); assay: cytotoxicity call (relative viability < 0.9); details: 10 µM
[2] = test system: S. aureus RN4220; assay: growth inhibition call (relative growth <= 0.2); details: 50 µM

Row | Compound | cytotoxicity call [1] | growth inhibition call [2]
1 | CCCCN1CC=C[C@@]23O[C@@H]4C=CCCOC(=O)[C@@H]4[C@H]2C(=O)N([C@@H](C)CO)[C@@H]3C1=O | inactive | inactive
2 | C[C@H]1CN([C@@H](C)CO)S(=O)(=O)c2ccc(Br)cc2O[C@@H]1CN(C)C(=O)Cc1ccccc1 | inactive | inactive
3 | C[C@@H]1CN([C@@H](C)CO)S(=O)(=O)c2ccc(C#CC3CC3)cc2O[C@H]1CN(C)Cc1ccccc1F | inactive | inactive
